Drawing on PubChem BioAssay (NCI), this text covers TGI and GI50 for four molecules.

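Method: 48-hour compound exposure of cells in 96-well plates, five concentrations, linear interpolation of endpoints. Here, GI50 denotes the concentration required for 50% inhibition of growth.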 Some entries of the source have several records that differ or are many. Only these are listed. There may be further records. For part of these data: Results that share an entry are repeats across runs, samples, wells, individuals or studies. Records carry a tag for their origin. A, B and so on number the origins entry by entry.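 Definition used: TGI = concentration required for complete inhibition of growth.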 For part of these data: A record mostly stands for its own series of concentrations, not given here; a value can be the end of its range.

Test systems include SK-MEL-28 melanoma; HOP-62 NSCLC; SK-OV-3 ovarian; SF-295 CNS; SR leukemia; IGROV1 ovarian; UO-31 renal; CCRF-CEM leukemia; HT29 colon; MOLT-4 leukemia; HCC-2998 colon; NCI-H522 lung; DMS 273 small cell lung; MALME-3M melanoma; UACC-257 melanoma; SW-620 colon; KM12 colon; U251 CNS; ACHN renal; NCI-H460 lung; HCT-116 colon; SF-539 CNS; XF 498 CNS; 786-0 renal; RXF 393 renal; HL-60(TB) leukemia; DMS 114 small cell lung; OVCAR-5 ovarian; SK-MEL-2 melanoma; M14 melanoma; CAKI-1 renal; SK-MEL-5 melanoma; MDA-MB-231 breast.

Common to all, as to experiment: NCI anticancer screen, dose series, 48 h

For the molecule `CNS(=O)(=O)Nc1nccc(Cc2c(C)c3ccc(Oc4ncccn4)cc3oc2=O)c1F`, the TGI with SK-MEL-28 melanoma was > 100 µM [sample A, mean of 2 tests] and 226 nM [sample B, 1 test]. Moreover, the GI50 in the assay on HOP-62 NSCLC was 2.09 µM [sample A, mean of 2 tests] and 95.5 nM [sample B, mean of 2 tests]; with SK-OV-3 ovarian it was > 100 µM [sample A, mean of 2 tests] and 9.9 µM [sample B, mean of 2 tests].
On to `C/C=C(/CCC1NCCc2c1[nH]c1ccccc21)[Si](C)(C)C` (configuration not stated), for which the GI50 is > 100 µM [sample A, 1 test] and 7.01 µM [sample B, mean of 2 tests] in the assay with SF-295 CNS; > 100 µM [sample A, 1 test] and 7.22 µM [sample B, mean of 2 tests] in the assay on IGROV1 ovarian; > 100 µM [sample A, 1 test] and 4.01 µM [sample B, mean of 2 tests] in the assay on UO-31 renal; > 100 µM [sample A, 1 test] and 3.32 µM [sample B, mean of 2 tests] with CCRF-CEM leukemia; > 100 µM [sample A, 1 test] and 1.86 µM [sample B, mean of 2 tests] in the assay with NCI-H522 lung; > 100 µM [sample A, 1 test] and 4.2 µM [sample B, mean of 2 tests] with DMS 273 small cell lung. Moreover, the GI50 in the assay with SK-MEL-28 melanoma was > 100 µM [sample A, 1 test] and 2.67 µM [sample B, mean of 2 tests]; with SW-620 colon, > 100 µM [sample A, 1 test] and 2.57 µM [sample B, mean of 2 tests]; in the assay with KM12 colon it was > 100 µM [sample A, 1 test] and 3.57 µM [sample B, mean of 2 tests]; with U251 CNS it was > 100 µM [sample A, 1 test] and 3.81 µM [sample B, mean of 2 tests]; in the assay with ACHN renal it was > 100 µM [sample A, 1 test] and 9.03 µM [sample B, mean of 2 tests]; with NCI-H460 lung, > 100 µM [sample A, 1 test] and 3.38 µM [sample B, mean of 2 tests]. The GI50 was > 100 µM [sample A, 1 test] and 5 µM [sample B, mean of 2 tests] in the assay with SF-539 CNS; > 100 µM [sample A, 1 test] and 3.08 µM [sample B, mean of 2 tests] in the assay on RXF 393 renal; > 100 µM [sample A, 1 test] and 4.3 µM [sample B, mean of 2 tests] in the assay with OVCAR-5 ovarian; > 100 µM [sample A, 1 test] and 2.85 µM [sample B, mean of 2 tests] in the assay with SK-MEL-2 melanoma; > 100 µM [sample A, 1 test] and 6.24 µM [sample B, mean of 2 tests] in the assay on CAKI-1 renal. In addition, the TGI in the assay on SR leukemia is > 100 µM [sample A, 1 test] and 9.86 µM [sample B, 1 test]; with HT29 colon, > 100 µM [sample A, 1 test] and 6.37 µM [sample B, mean of 2 tests]; with MOLT-4 leukemia, > 100 µM [sample A] and 7.38 µM [sample B]; in the assay on HCC-2998 colon, > 100 µM [sample A, 1 test] and 3.21 µM [sample B, 1 test]; in the assay on NCI-H522 lung, > 100 µM [sample A, 1 test] and 3.48 µM [sample B, mean of 2 tests]; with SK-MEL-28 melanoma, > 100 µM [sample A, 1 test] and 5.9 µM [sample B, mean of 2 tests]. The TGI was > 100 µM [sample A] and 3.41 µM [sample B] with MALME-3M melanoma; > 100 µM [sample A, 1 test] and 9.15 µM [sample B, mean of 2 tests] in the assay with UACC-257 melanoma; > 100 µM [sample A, 1 test] and 6.58 µM [sample B, mean of 2 tests] in the assay on SW-620 colon; > 100 µM [sample A, 1 test] and 8.6 µM [sample B, mean of 2 tests] in the assay with NCI-H460 lung; > 100 µM [sample A, 1 test] and 5.15 µM [sample B, mean of 2 tests] in the assay with HCT-116 colon; > 100 µM [sample A] and 3.41 µM [sample B] in the assay with XF 498 CNS. The TGI in the assay with 786-0 renal was > 100 µM [sample A, 1 test] and 4.67 µM [sample B, 1 test]; with RXF 393 renal, > 100 µM [sample A, 1 test] and 8.61 µM [sample B, mean of 2 tests]; with HL-60(TB) leukemia, > 100 µM [sample A, 1 test] and 4.45 µM [sample B, mean of 2 tests]; with DMS 114 small cell lung, > 100 µM [sample A, 1 test] and 4.18 µM [sample B, mean of 2 tests]; with SK-MEL-2 melanoma it was > 100 µM [sample A, 1 test] and 7.79 µM [sample B, mean of 2 tests]; in the assay with M14 melanoma, 46 µM [sample A, 1 test] and 3.24 µM [sample B, mean of 2 tests].
`O=C1NC(=O)C2C3C=CC(C12)C1C2C(=O)NC(=O)C2C31` (configuration not stated): the TGI with HOP-62 NSCLC is 86.4 µM and > 1 mM.
As for `Cc1cnc2[nH]c(-c3cccc4ccccc34)cc(=O)c2c1`, the TGI in the assay on SK-MEL-5 melanoma was 1.01 nM and 106 nM; with MDA-MB-231 breast it was 95.5 nM and > 100 µM; in the assay with SF-539 CNS, 19.4 nM and > 100 µM.
